# The source gives no read counts; variants with many changes may rest on few reads.
# B1: LINE1-mini (parent)
# chain: GGCAGAGCUCAACACAGCGUGGCAAAGUGGCUGUGGCUAGACUGCC
# Variants of: B1
# Assay: self-cleavage, relative activity (ratio to wild type); higher = more cleavage; in vitro, sequencing; the parent is a self-cleaving ribozyme
row,Variant,self-cleavage
1,G2A G5A C15A U34A,0.38
2,U9A C15U A25U U32G U34A U43C,0.56
3,C8A C13A C15U G33C,0.18
4,A4C G27U G30U,0.34
5,G5C C13U G36A,0.05
6,A4U A11C A25G,0.03
7,G2A G5C C13G C15A,0.07
8,C3G A16G U20G G36C U43A,0.04
9,G5U C13U A25G,0
10,A4G A16C G27C,0.02
11,G5A G17U C18G G29U U38C,0.05
12,C8G C10U A11C A16C A24U G30U,0.01
13,A25C G30A G35U G44U,0.01
14,C10U C18U C23A A25G G27C,0.12
15,A11G C15A G21U U38A A39C C46G,0
16,C3G C31A G33U,0.15
17,G19U G21C G29C,0.76
18,C8G C13U A39G,0.04
19,A25C G29U G35A C42G,0.02
20,G1U A6C C8A U32G,0.07
21,G1C A25C C37U C46A,0.01
22,G2U C15A G19C G22U,0.02
23,C8G C23U G27U G33C,0.05
24,C3U A4U A14G G30A,0.06

row,Variant,self-cleavage
1,C8A G19A G22C,0.14
2,G22C G30C U34C,0.16
3,G5U G36A G44A,0.01
4,A26U U28G G30C,0.47
5,G22C C23U C37A C42A,0.05
6,G7U U28G G30C G35U G40U C42U,0.28
7,G7C G17U U43A,0.05
8,G2A C13U C31A A41C C42A,0.32
9,C15G G19A G33U,0.22
10,C10A C13G A16G G40C,0
11,G35C G36A C45A,0.04
12,C10A A12C G30A C31A G35C C45U,0
13,G2C G7A A16C C18G G33U C45A,0
14,G29U G44C C46A,0.04
15,G7A C8U C13U G21U,0.74
16,A4G A6G G40U C46A,0.1
17,G7U C23U G29A,0.02
18,A16U G36C A41G,0.02
19,U20A U34A G36U,0.04
20,G19U G33U C46G,0.13
21,G7U G40A A41U U43G,0.18
22,C3U C13G G19C,0.04
23,G2A C3U U9A C18U G19C,0.11
24,G1U G2C G22U A25U C31A,0.01

row,Variant,self-cleavage
1,C3G C13A G17C G27A,0.41
2,U9C A16U C18U G22C A24G G29U,0.02
3,G5U A24U A39U,0.08
4,G1U C10A C13A G22U G33U,0
5,G2A C3U A4G G27C,0.21
6,G7U C18G C31A,0.03
7,A4U C10U A12U G40C,0.05
8,G33C G40A U43A,0.04
9,A4C G5C U20G,0.03
10,A14G G17A G33A,0.02
11,C3U G21A A25U,1.22
12,G2A G17U G27A G30A,2.42
13,C3A A11G A24C C42G,0.01
14,G5A G7A C18U C23A U32G,0.18
15,G7A C10A C18A G29U U38A,0
16,G7C G27C G33A C42G,0.07
17,G1A C18U C45G,0.07
18,G35A G44U C46A,0.05
19,C23U C31A C46A,0.27
20,C18G G22U G44A,0.08
21,G19U G36C C46A,0.02
22,G2A U20A C45G,0.8
23,C10A G33U G40A,0.01
24,A6U U9A C13U U32A G33U G40U,0.04

row,Variant,self-cleavage
1,G1A G5U C18U A39U,0.05
2,C10G A39U A41C,0.02
3,G7C A16G C23U,0.08
4,A11U C13G A14U A16G,0.01
5,G19U A26G G30U G33A,0.17
6,G1A G2U G7A C8G G30A,0.43
7,C23G G29A G35A A41U,0.12
8,C8A C15G G22A C42U C46A,0.04
9,G19A U28A C42G C45G,0.01
10,G2C G27A U38A C46G,0.04
11,G7A A16G C37A,0.91
12,A26U G27U C46U,0.28
13,G29U U38C G40A,0.25
14,A4U G22C G30C,0.14
15,G17U A24C G40U A41C,0.07
16,U9C C18A G19U,0.1
17,C31U U34A G35U C45A,0.02
18,G5U C23A G33A C37A,0.04
19,A6U C18A A39U,0.81
20,C3A A6U A24G C42U,0.27
21,G7A A26C G33U,0.23
22,G1A C15G G30C C31A G35A,0.02
23,G2A C10U G17C,0.2
24,G21U A25C A26C G27A U28G A39C,0.02

row,Variant,self-cleavage
1,U32G C42G G44U,0.05
2,A14U G19C U20G U34C,0.23
3,G30A C37A A41G G44C,0.05
4,C8U G29A G40A,0.32
5,C13A A25G A41U,0.03
6,A11G G36A G40U C45G,0
7,G2C A4G G22C G30A G40U,0.04
8,G5U C10U U20A,0.06
9,U9G G22U U43C,0.03
10,A6U A12G C42U G44A C45A,0.06
11,G22U U32G C42A,0.07
12,A16U G29U U32A A39C,0.01
13,A25U U32G G36U,0.02
14,C18U U20G A25U,0.61
15,G5U C23G G29C U32G,0
16,G5C A11U A26G U34C U38A,0.03
17,G1C G5U C15G C42A U43G,0.3
18,G7U A26U G29A,0.04
19,A12G C13U A25U,0
20,G2U A4G G17A U20G C23A A39C,0.02
21,A4U A12G G17A G22A G30U C42U,0.01
22,C8A G19U A24U G33U,0.08
23,G1C C15G A41U C45G,0.01
24,G5U A6G U34A,0.04

row,Variant,self-cleavage
1,G2U G30U C37A,0.03
2,G7U C10A G27C U38A G40U C46A,0
3,G5A G19C C23U A25U,0.03
4,C8A A12C A14U C18A A24C,0.06
5,G5C A6C G17U,0.07
6,G2A A4C G5A C23U U32A C37U,0.04
7,G1C C3G G7U A11G C15A G17C A26G A39G,0.03
8,G2C C8A G27A U28A G30C U43G,0
9,A12U G19C G22C G33A C45A,0
10,A16U G33C C46A,0.06
11,C10U G30A C37U,0.04
12,G2U U20A U32C G35U,0.02
13,C15G A24U G44U,0.02
14,A12C G22U U28C G44U,0.01
15,C10G C18G A24C C46A,0.02
16,C13U A16U G35U,0.3
17,G19C U38G C45G,0.09
18,C3G G17A C18G G19U C46A,0.05
19,C3A G33U U34A C46U,0.17
20,C23A G29U U38G A41C,0.02
21,A4G A16U A24U,0.18
22,C23U G40U G44U,0.06
23,C3G C18U U32C G33U U38C C45G,0.09
24,G5U C18G G35C U43C,0

row,Variant,self-cleavage
1,A6C C15U G33A,1.18
2,A4U G22U G30U C42G,0.02
3,G2A G5A C10A A41U U43A,0.02
4,A4C C18U U20C U43C,0.05
5,G1U G2U G7U A16U G33A,0.08
6,G2A G35A G40C,0.14
7,A11U A25C G35A,0.02
8,A6G A12U C37A,0.05
9,C3G C10U G29U U38C C46A,0.17
10,A25U C37U G44U,0.06
11,G22A A25G G27A G29A C37G G44A,0.08
12,C23A G30C G36U,0.33
13,G2C G17A U38G,0.07
14,C8U C18A U20A,0.54
15,G1U G29U G36A,0.27
16,A12U C15U U32G C42A,0.02
17,U28C G30A G33U U38C,0.04
18,U9A G21C U28G U38C,0.01
19,A4C C23G U43C G44A,0.05
20,C8A C18G C23A,0.55
21,U9A A12G G27U G35A G44C,0.02
22,G5A A11G G40C,0.01
23,G5U G17A C23A C31G C37G,0.02

# From the RNAGym collection of RNA variant scans (doi:10.7554/elife.90254)
